# Results: publication PMC4336329 (PLoS ONE, 2015)
# The whole screen tested about 310,000 compounds, of which about 14,000 (4.5%) showed an effect of 50% or more. The effect is printed as a negative number. This is one part of the list.
# Target: human ether-à-go-go-related gene (hERG) potassium channel (human, UniProt Q12809)
# Assay: primary screen, population patch clamp on CHO cells stably expressing hERG
# 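Also: peak tail current of the secondary pulse compared with the same well before compound.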
# human ether-à-go-go-related gene (hERG) potassium channel, sequence (Q12809 whole entry, looked up): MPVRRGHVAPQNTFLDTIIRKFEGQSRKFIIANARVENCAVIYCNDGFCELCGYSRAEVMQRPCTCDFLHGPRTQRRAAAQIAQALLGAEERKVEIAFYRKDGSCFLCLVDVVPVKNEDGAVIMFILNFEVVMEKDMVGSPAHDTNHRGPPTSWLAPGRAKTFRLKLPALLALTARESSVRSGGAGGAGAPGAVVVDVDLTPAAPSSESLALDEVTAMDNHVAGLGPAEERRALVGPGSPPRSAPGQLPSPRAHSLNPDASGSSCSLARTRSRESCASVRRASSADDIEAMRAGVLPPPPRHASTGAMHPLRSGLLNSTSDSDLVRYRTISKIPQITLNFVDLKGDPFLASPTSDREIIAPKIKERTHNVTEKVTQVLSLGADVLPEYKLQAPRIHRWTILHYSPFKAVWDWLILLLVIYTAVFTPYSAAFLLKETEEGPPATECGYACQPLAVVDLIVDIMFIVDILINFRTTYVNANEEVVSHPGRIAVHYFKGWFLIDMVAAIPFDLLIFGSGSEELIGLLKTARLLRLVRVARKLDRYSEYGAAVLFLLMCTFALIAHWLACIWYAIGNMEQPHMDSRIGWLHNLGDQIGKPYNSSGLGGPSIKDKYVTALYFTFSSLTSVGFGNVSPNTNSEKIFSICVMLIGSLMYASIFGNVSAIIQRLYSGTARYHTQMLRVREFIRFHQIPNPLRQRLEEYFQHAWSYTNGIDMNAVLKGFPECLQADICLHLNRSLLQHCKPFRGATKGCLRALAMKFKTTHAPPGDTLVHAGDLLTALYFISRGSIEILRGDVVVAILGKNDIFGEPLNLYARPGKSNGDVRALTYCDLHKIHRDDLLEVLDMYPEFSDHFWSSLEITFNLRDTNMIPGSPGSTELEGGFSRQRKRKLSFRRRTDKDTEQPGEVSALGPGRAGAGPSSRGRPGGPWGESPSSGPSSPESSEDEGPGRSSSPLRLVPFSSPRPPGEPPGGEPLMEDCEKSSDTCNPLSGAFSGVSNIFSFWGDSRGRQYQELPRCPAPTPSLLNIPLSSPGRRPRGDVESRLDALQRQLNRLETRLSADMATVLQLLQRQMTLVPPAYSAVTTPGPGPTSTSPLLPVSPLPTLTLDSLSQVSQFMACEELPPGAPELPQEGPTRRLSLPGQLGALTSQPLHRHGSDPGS
row,Structure (SMILES),"hERG current change (%, negative = inhibition) at 10uM"
1,Cc1ccccc1N(CC(=O)N/N=C/c1cc(C)n(-c2ccccc2C)c1C)S(C)(=O)=O,13.4%
2,Cc1ccc(CNC(=O)COC(=O)c2cccc(S(=O)(=O)N3CCCCC3)c2)cc1,-23.5%
3,Cc1ccccc1NC(=O)COC(=O)C1(C)CC1(Cl)Cl (stereo not drawn),21.2%
4,COc1cc(CC(=O)OCC(=O)NCC(C)C)cc(OC)c1OC,16.8%
5,CSc1ccc(CN(C)CC(=O)Nc2c(F)cccc2F)cc1.O=C(O)C(=O)O,-8.03%
6,CN1CCC(=NNC(=O)CN(c2cccc([N+](=O)[O-])c2)S(=O)(=O)c2ccccc2)CC1,7.36%
7,COC(=O)c1ccc(N2CCCCC2)c(NS(=O)(=O)c2ccc(C)cc2)c1,-17%
8,Cc1nnc(NC(=O)C(c2ccccc2)c2ccccc2)s1,5.66%
9,CCCCn1c(=NC(=O)c2ccc3c(c2)OCO3)c(C#N)cc2c(=O)n3cccc(C)c3nc21,-5.68%
10,Cc1ccc(NC(=O)COC(=O)c2c(-c3ccccc3)noc2C)cc1,-6.15%
11,COc1ccc(NC(=O)C(=O)NCCCO)cc1Cl,9.95%
12,O=C(CN(Cc1ccc(F)cc1)C(=O)c1csnn1)NC1CCCC1,3.86%
13,COc1ccc(NC(=O)C(Cc2ccccc2)n2cccc2)cc1OC (stereo not drawn),-7.21%
14,CC(=O)c1cccc(NC(=O)c2nc(-c3ccccc3)oc2C)c1,-6.99%
15,Cc1ccc(NC(=O)c2cccs2)cc1NC(=O)c1cccnc1,33.1%
16,COc1ccc(/C(N)=N/OC(=O)c2cccs2)cc1OC,2.74%
17,C=CCn1c(SCC(=O)Nc2cc(C)on2)nc2sc(CC)cc2c1=O,1.3%
18,Cc1cccc(CCNC(=O)c2cc(S(=O)(=O)N3CCCC3)cn2C)c1,-4.2%
19,O=C(COc1ccc(-c2ccccc2)cc1)N1CCN(S(=O)(=O)Cc2ccccc2)CC1,-19.3%
20,CCN(C(=O)CSc1nc2n[nH]c(C)c2c(=N)n1-c1ccc(Cl)c(C)c1)c1cccc(C)c1,8.36%
21,COc1ccc(/C=C(\C#N)C(=O)NCC2CCCO2)cc1OC (stereo not drawn),0.277%
22,C=CCc1cccc2cc(C(=O)NC3CCCC3)c(=O)oc12,-0.443%
23,COc1ccccc1CN1CC(C(=O)NCCCc2ccc(F)cc2)CCC1=O (stereo not drawn),-41%

row,Structure (SMILES),"hERG current change (%, negative = inhibition) at 10uM"
1,O=C(Cn1cnc2ccccc21)c1ccc(Cl)cc1,1.77%
2,COC(=O)CCc1ccc(O)cc1,7%
3,CC(=O)c1cccc(NC(=O)C2CCCN(S(=O)(=O)c3ccccc3)C2)c1 (stereo not drawn),-26.8%
4,CC1=CC(C)C2(CO)COC(c3cccnc3)C1C2C (stereo not drawn),-9.23%
5,CC1Cc2ccccc2N1C(=O)CCN1C(=O)C2C3C=CC(C3)C2C1=O (stereo not drawn),2.41%
6,CCOc1ccc(N2CC(C(=O)N/N=C/c3sccc3C)CC2=O)cc1 (stereo not drawn),-16.6%
7,CCCN(CCO)Cc1ccc(Br)cc1,-6.08%
8,CN1C(=O)C2(N=c3ccccc3=N2)c2ccccc21,-17.8%
9,COc1ccc(N2CCN(Cc3nc4c(c(=O)n(C)c(=O)n4C)n3CC(C)=O)CC2)cc1,-7.01%
10,COc1ccc(OCCC(=O)OCC(=O)NCCC2=CCCCC2)cc1,10.9%
11,Cc1cnc(NC(=O)Cc2cccs2)s1,23.1%
12,Cc1ccc(S(=O)(=O)n2nc(C)c(C#N)c2N)cc1,-1.64%
13,Cc1csc(NC(=O)c2cc(-c3ccco3)nc3ccccc23)n1,-10.8%
14,O=C(/C=C/N1CCOCC1)c1cc2ccccc2o1,1.21%
15,COc1cccc2cc(C(=O)N3CC(C)OC(C)C3)c(=O)oc12 (stereo not drawn),9.7%
16,O=P([O-])(CN1CCCCCC1)C1Cc2ccccc2C1,19%
17,O=C(COc1ccc([N+](=O)[O-])cc1)NCCC1=CCCCC1,-35.2%
18,O=C(N=C1SC2CS(=O)(=O)CC2N1Cc1ccc(Cl)cc1)C1CCCO1 (stereo not drawn),14.3%
19,C/C(=N\NC(=O)c1cc(C2CC2)nc2ccccc12)c1ccc(O)cc1O,-17.1%
20,COc1ccc(C)cc1NC(=O)C1CCN(S(=O)(=O)c2c(C)noc2C)CC1,-4.69%
21,O=C(N1CCOCC1)N1CCN(c2ccccc2)CC1,4.81%
22,Cc1cccc(NC(=O)CSc2cccc3cccnc23)c1C,5.81%
